Among all 340,000 compounds or so, about 6,900 (2%) were called active. Rule as the data show it: active = inhibition above about 30%; inactive = below that, where a call was filed. The entries are a selection whose mix differs from that of the whole data set. Entries without a call were filed so in the source.
What follows are compounds tested against D(2) dopamine receptor (Homo sapiens) (UniProt P14416) (assay: HTS Assay for Allosteric Antagonists of the Human D2 Dopamine Receptor: Primary Screen for Antagonists). Conditions: HEK293 TREx D2 cells, calcium flux, dopamine EC80; at 10 µM; stronger effect = higher value.
Sequence of UniProt P14416 (P14416 whole entry, looked up): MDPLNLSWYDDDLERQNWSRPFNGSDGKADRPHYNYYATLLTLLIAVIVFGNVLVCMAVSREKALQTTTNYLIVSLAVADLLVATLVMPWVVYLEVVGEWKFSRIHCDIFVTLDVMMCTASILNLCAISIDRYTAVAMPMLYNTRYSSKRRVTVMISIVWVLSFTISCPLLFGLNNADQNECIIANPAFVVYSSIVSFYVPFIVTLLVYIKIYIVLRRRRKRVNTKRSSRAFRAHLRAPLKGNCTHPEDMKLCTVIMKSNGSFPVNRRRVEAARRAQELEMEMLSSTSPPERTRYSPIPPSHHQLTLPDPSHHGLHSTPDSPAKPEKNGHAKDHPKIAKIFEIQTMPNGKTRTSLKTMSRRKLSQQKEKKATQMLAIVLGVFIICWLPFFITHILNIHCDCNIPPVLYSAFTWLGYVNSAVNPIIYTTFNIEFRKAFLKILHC
Summary of the method: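 Inhibition of EC80 dopamine-driven calcium flux, recorded kinetically, defines activity here; cells are a tetracycline-induced HEK293 T-REx line expressing force-coupled D2.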
`CCCCC(=O)OC1=C(C(=O)c2ccccc2)N(CCC)S(=O)(=O)c2ccccc21` showed an inhibition of -10.8%. In the case of `CC(NC(=O)CSc1n[nH]c(-c2ccccc2Cl)n1)c1nc2ccccc2[nH]1` (stereo not given), the inhibition was 8.13%. Work on `CCOc1cc(C(=O)NCCc2sc(-c3ccc(F)cc3)nc2C)cc(OCC)c1OCC` yielded an inhibition of 12.2%. For `CNC(=O)CCCN1C(=O)c2cccnc2Sc2ccccc21`, the inhibition was 2.41%. Compound `Cc1nc2ccc(S(=O)(=O)N(CC(=O)Nc3ccc(F)cc3F)Cc3ccccc3)cc2s1` has an inhibition of -2.09%. For `CCOc1ccc(NC(=O)c2ccc3[nH]c(C)c(C)c3c2)cc1`, the inhibition was 12.4%. Work on `O=C(Cn1c(SCc2ccccc2F)nc2ccncc21)Nc1ccccc1C(F)(F)F` yielded an inhibition of 4.48%. `O=C(Cn1c(=O)c2cccn2c2cccnc21)NCc1cccc(F)c1` was tested, and the inhibition was 7.62%. For `Cc1ccc(S(=O)(=O)Nc2cccc(-c3cn4cccc(C)c4n3)c2)c(C)c1`, the inhibition was 12.4%. `CCOc1ccc(NS(=O)(=O)c2cc3c(cc2Cl)NC(=O)CO3)cc1` gave an inhibition of 1.94%. `Cc1cc(C)c(NC(=O)CCS(=O)(=O)c2cc3c(cc2Cl)NC(=O)CO3)c(C)c1` was tested, and the inhibition was -22.1%. `CC(=O)Nc1ccc(NC(=O)CCCn2nc(C)c3sc4ccccc4c3c2=O)cc1` gave an inhibition of 17.6%. With `COc1cc2c(cc1OC)C(COc1cccc(C(F)(F)F)c1)N(C(=O)c1ccc(S(=O)(=O)N3CCCC3)cc1)CC2` (stereo not given) the inhibition was 18.4%. For `CCC(C)NC(=O)C1CCN(S(=O)(=O)c2ccc3c(c2)CCCN3C(C)=O)CC1` (stereo not given), the inhibition was -1.49%. Compound `CCn1cc(C(=O)N2CCN(c3ccc(C)cc3)C(C)C2)c(=O)c2cc(S(=O)(=O)N3CCCC3)ccc21` (stereo not given) has an inhibition of -4.51%. Work on `CCc1ccccc1NC(=O)C(=O)NCCCN1CCOCC1` yielded an inhibition of 2.4%. In the case of `CC(=O)c1cccc(NC(=O)c2nc(-c3ccccc3)n(-c3ccccc3)n2)c1`, the inhibition was 10.1%. For `O=C1CCCc2cc(S(=O)(=O)N3CCCC(C(=O)NCc4ccccc4)C3)ccc2N1` (stereo not given), the inhibition was 15.2%. Compound `Cc1cc(C)c(NC(=O)CN(C)S(=O)(=O)c2ccc3c(c2)CCC(=O)N3)c(C)c1` has an inhibition of -0.805%. For `COc1ccc(CNC(=O)c2cc3c(=O)n(Cc4ccco4)ccc3nc2C)cc1`, the inhibition was 5.08%. For `COc1cccc(NC(=O)CCNS(=O)(=O)c2ccc3c(c2)oc(=O)n3C)c1`, the inhibition was -17.6%. `Cc1ccc(S(=O)(=O)N(C)C)cc1NC(=O)C1CCCN(C(=O)c2ccc(Cl)cc2)C1` (stereo not given) was tested, and the inhibition was active: 31.2%. `Cc1cc(C)c2c(=O)n(CC(=O)NCCCN3CCN(c4ccccc4F)CC3)sc2n1` was tested, and the inhibition was active: 53.5%. Work on `COc1ccc(C2=NC(c3ccncc3)=Nc3ccc(OC)cc3N2)cc1` yielded an inhibition of -6.64%. For `COc1ccc(-c2noc(N3CCC(C(=O)N4CCN(c5cccc(C)c5C)CC4)CC3)n2)cc1`, the inhibition was 8.85%. `COc1ccc(C2=C(C)C(=O)N(Cc3ccc(C(=O)NCc4cccc(C)c4)cc3)S2(=O)=O)cc1` showed an inhibition of -12.8%. With `CCOc1ccc(NC(=O)CCNS(=O)(=O)c2cccc3nonc23)cc1` the inhibition was -14.8%. For `COc1ccc(-c2noc(COc3cc(C)ccc3C)n2)cc1OC`, the inhibition was -7.65%. With `O=C(COc1ccc(F)cc1)Nc1ccc2nc(SCC(=O)N3CCOCC3)sc2c1` the inhibition was -1.15%. Work on `CC(C)c1ccc(N2C(=O)CSC23C(=O)N(C)c2ccccc23)cc1` (stereo not given) yielded an inhibition of -0.0545%. In the case of `O=C1[C@@H]2CSC(c3ccc(Cl)cc3)N2C(=O)N1c1ccccc1` (stereo not given in full), the inhibition was -1.86%. Work on `CCCN(C(=O)c1cc2c(=O)[nH]c3ccc(C)cc3c2s1)c1ccc(CC)cc1` yielded an inhibition of -5.48%. Compound `CC1CCN(C(=O)c2cc(-c3ccc(Br)cc3)on2)CC1` has an inhibition of -1.28%. `CCOc1ccc(CNS(=O)(=O)c2ccc3c(c2)CCCN3C(C)=O)cc1OC` showed an inhibition of -20.1%. `CCc1nnc2c(N3CCN(c4cc(Cl)ccc4C)CC3)nc3ccccc3n12` was tested, and the inhibition was 12.5%. In the case of `CCOC(=O)C1CCCN(C(=O)c2nn(-c3ccc(C)cc3)c(=O)n(C)c2=O)C1` (stereo not given), the inhibition was -9.72%. For `Cc1oc(-c2ccccc2Cl)nc1CSc1nc2ncccc2[nH]1`, the inhibition was 6.01%. `CCOC(=O)c1c(C)n(-c2ccccc2)c2ccc(OC(=O)c3cccc(OC)c3OC)cc12` showed an inhibition of 17%. `O=C(NCc1cccc(Cl)c1)c1ccc2nc(N3CCCCC3)sc2c1` showed an inhibition of -3.34%. With `CCN(CC)C(=O)c1ccc(Nc2nnc(-c3ccc(C)c(S(=O)(=O)NC)c3)c3ccccc23)cc1` the inhibition was 13.2%. For `CCc1cccc(N2C(=O)CSC23C(=O)Nc2ccccc23)c1` (stereo not given), the inhibition was 2.46%. In the case of `Cc1c(CC(=O)N[C@@H](C)C(=O)O)c(=O)oc2cc3c(cc12)CCC(C)(C)O3`, the inhibition was active: 36.3%. With `CCOC(=O)c1c(NC(=O)c2cc(-c3cccc(OC)c3)on2)sc2c1CCCC2` the inhibition was -1.72%. `COc1cccc(CNC(=O)Cc2c(C(=O)O)c(C)cn2C)c1` was tested, and the inhibition was 18.6%. `COc1ccc(CC(=O)NCC(c2cccs2)S(=O)(=O)c2ccc(C)cc2)cc1` (stereo not given) was tested, and the inhibition was 5.64%. Work on `CCc1ccc(NC(=O)Cn2c(=O)n(Cc3ccco3)c(=O)c3oc4ccccc4c32)cc1` yielded an inhibition of 4.29%. For `O=C(N/N=C/c1ccc(OC(F)F)cc1)c1ccc(Br)cc1`, the inhibition was active: 31.3%. `CC(C)c1ccc(NC(=O)CN2C(=O)COc3ccc(S(=O)(=O)N4CCCCCC4)cc32)cc1` gave an inhibition of -8.73%. `CCCCOc1ccccc1CC1C(=O)Nc2ccc(Br)cc21` (stereo not given) gave an inhibition of 16.1%. Work on `O=C(NCc1cccs1)c1ccc(CSc2nc3cccnc3n2Cc2ccccc2F)cc1` yielded an inhibition of -14.4%. `COc1ccc(NC(=O)C2CCCN(S(=O)(=O)c3ccc(Br)s3)C2)cc1` (stereo not given) was tested, and the inhibition was -11.5%. Work on `CC(=O)N1CCc2cc(S(=O)(=O)NC(C(=O)Nc3ccc(C)cc3C)C(C)C)ccc21` (stereo not given) yielded an inhibition of -3.47%. In the case of `CSc1cccc(Nc2cc(C(=O)NCCCN(C)c3ccccc3)c3ccccc3n2)c1`, the inhibition was -19.6%. `CCOC(=O)c1c(-c2ccc(C)cc2)csc1NC(=O)c1cc(=O)c2ccc(C)cc2o1` showed an inhibition of 7.31%. In the case of `COc1ccccc1N1CCN(CC(=O)Nc2ccc(CN3CCCCC3)cc2)CC1`, the inhibition was active: 39.1%. For `COc1ccc(/C=C/C(=O)Nc2nc3n(n2)C(c2ccc(F)cc2)C=C(c2ccccc2)N3)cc1` (stereo not given), the inhibition was 11.8%. `COc1ccc(NC(=O)Cn2c(=O)n(Cc3nc(-c4ccccc4)no3)c(=O)c3ccccc32)cc1Cl` gave an inhibition of 6.4%. `Cc1ccc2c(c1)C1CN(C)CCC1N2Sc1ccccc1[N+](=O)[O-]` (stereo not given) was tested, and the inhibition was active: 43.1%. `CCc1cccc(-n2c(=O)c3cccnc3n2CC(=O)Nc2ccc(F)c(C)c2)c1` gave an inhibition of -6.39%. `CC(C)c1ccc(Nc2cc(C(=O)NC3CCCCC3)c3ccccc3n2)cc1` gave an inhibition of 11.7%.
Also: 0% is about no effect.
